Laboratory results reported in the RNAGym collection of RNA variant scans (doi:10.1093/nar/gkz1192).
The source gives no read counts; variants with many changes may rest on few reads.

B1: CPEB3 Ribozyme (parent)
chain: UAACAGGGGGCCACAGCAGAAGCGUUCACGUCGCAGCCCCUGUCAGAUUCUGGUGAAUCUGCGAAUUCUGCUGUAUAUCUC

Variants of: B1
Test: self-cleavage, relative activity (ratio to wild type); higher = more cleavage; in vitro, sequencing
Method in brief: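 CPEB3 self-cleaving ribozyme mutant libraries were made by rounds of error-prone PCR, barcoded, and transcribed in vitro with T7 RNA polymerase for 5 hours at 37°C. Cleavage occurred during transcription and a 15 min DNase I step before EDTA stop. RNAs were reverse transcribed with template switching and Illumina-sequenced, with DNA sequencing mapping barcodes to variants. Relative activity is the variant's cleaved/total read fraction divided by wild type's (minimum 5 reads), averaged across three batches.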
In the case of CUACAGGGGGCCACAGCAGAAGCGUCCACGUCGCAGCCCCUGUCAAAUUCCGGUGAAUCUGCGGAUUCUGCUGUUUAUCUC, the self-cleavage is reported as 0.04. Variant CUACAGGGGGCCACAGCAGAAGCGUUCGCGUCGCAGCCCCCGUCAGAUACUGGUCAAUCUGCGAAUUCUGCGGUAUAUCUC has a self-cleavage of 0.11. In the case of CGACAGGGGGCCACGGCAGAAGCGUUCACGUCGCGGCCUCUGUCAGAUUCUGGUGAAUCUGCGGAUUCUGCUGUAUAUCUC, the self-cleavage is reported as 0.35. With AAACAGGGGGCCACAGCAGAAGCGUUCACGCCGCGGCCCCUGUCAGACUCUGGCGAAUCUGCGAAUUCUGGUGUAUAUCUC the self-cleavage was 0.31. Variant AAACAGGGGGCCACAGCAGAAGCGUUCACGUCGCAGCCCCUGUCAGAUUCUGGUGAAUCAGCGGAUUCCGCUGUAUAUCUC has a self-cleavage of 0.21. In the case of CGACAGGGGGCCCCAGCAGAAGCGCUCACGUCGCAGCCCCUGUCAGAUUCUGGUGAAUCUGCGAGUUCUGCUGUAUAUCUC, the self-cleavage is reported as 0. CGACAGGGGGCCACAGCAGGAGCGUUCACGUCGCAGCCCCAGUCAGAUUCUGGUGAAUCUGCGGAUUCUGCUGUAUAUCUC showed a self-cleavage of 0.34. AAACAGGGGGCCACAGCAGAAGCGUUCACGUCGCAGCCCCUGUCAGAUUCUGGCGAAUCUGCGAAUUCUGCUGUAUAUCAC gave a self-cleavage of 0.92. For AAACAGGGGGCCACAGCAGAAGCGUUCACGUCGCAGCCCCAGCCAGAUUCUGGUGGGUCUGCGAAUUCUGCUGUAUAUCUC, the self-cleavage was 0.22. CGACAGGGGGCCAUAGCAGAAGCGUUCACGUCGCAGCCCCUGUCAGAUUCUGGUGAAUCUGCGAAUUCUGCCGUAUAUCUC gave a self-cleavage of 0.55. For AAACAGGGGGCCACAGCAGAAGCGUUCACGUCGCAGCCCCUGUCAGAUUCAGGUGAGUCUGCGAAUUCUGCUGUGUAUCUC, the self-cleavage was 0.39. With CGACAGGGGGCCACAGCGGAAGCAUUCACGUCGCAGCCCCUGUCAGAUUCUGGUGAAUCUGCGAAUUCUGCUGUAUAUCUC the self-cleavage was 0.37. Variant AAACAGGGGGCCACAGCAGAAGCGUUCACGUCGCAGCCCCCGUCAGACUCUGGUGAAUCUGCGAAUUCUGCUGUAUAUCUC has a self-cleavage of 0.62. CGACAGGGGGCCACAGCAGAAGCGCCCACGUCGCAGCCCCUGUCAGAUUCUGGUGAAUCUGCGAAUUCUGCUGUAUAUCUC gave a self-cleavage of 0.58. For AAACAGGGGGCCACAGCAGAAGCGUUCACGUCGCAGCCCCUGACAGAUUCUGGCGAAUCUGCGAAUUCCGCAGUAUAUCUC, the self-cleavage was 0.26. Work on AAACAGGGGGCCACAGCAGAAGCGUUCACGUCGCAGCCCCUGUCAGAUUCUGGCGAAUCUGCGAAUUCUGCUGUAUAACUC yielded a self-cleavage of 0.94. CGACGGGGGGCCACAGCAGAAGCGUUCACGUCGCAGCCCCUGCCAGAUUCUGGUGAAUCUGCGAAUUCUGCUGUAUAUCUC showed a self-cleavage of 0.33. For AAACAGGGGGCCACAGCAGAAGCGUUCACGCCGCAACCCCUGUCGGAUUCUGGUGAAUCUGCGAAUUCAGCUGUAUAUCUC, the self-cleavage was 0.19. CACCAGGGGGCCACAGCAGAAGCGUUCACGUCGCUGCCCCUGUCAGAUUCUGGUGAAUCUGCGAAUUCUGCCGUAUAUCUC showed a self-cleavage of 0.84. Variant AAACAGGGGGCCACAGCAGAAGCGUUCACGACGCAGCCCCUGUCAGAUUCUGGUGAGUCUGCGAAUCCUGCUGUAUAUCUC has a self-cleavage of 0.14. With AAACAGGGGGCCACAGCAGAAGCGUUCACGUCGCAGCCCCAGUCAGAUUCUGGUGAGUCUGCGAAUUCUGCUGUAUAUCUC the self-cleavage was 0.46. For AAACAGGGGGCCACAGCAGAAGCGUUCACGUCGCAGCCCCUGUCAGAUACUGGCGAAUCUGCGAAUUCCGCUGUAUAUCUC, the self-cleavage was 0.15. AAACAGGGGGCCACAGCAGAAGCGUUCACGUCGCAGCCCCUGGCAGACUCUGGUGAAUCCGCGAAUUCUGCCGUAUAUCUC gave a self-cleavage of 0.23. In the case of AAACAGGGGGCCACAGCAGAAGCGUUCACGUCGCAGCCCCCGACAGAAUCUGGUGAAUCUGCGAAUUCUGCUGUACAUCUC, the self-cleavage is reported as 0.22. With CUACAGGGGGCCACAGCAGAAGCGUUCACGUCGCAGCCCCAGUCAGAUUCUGGAGAAUCUGCAAGUUCUGCUGUAUAUCUC the self-cleavage was 0.16. Work on CGACAGGGGGCCACAGCAGACGCGUUCGCGUCGCAACCCCUGUCAGAUUCUGGUGAAUCUGCGAAUUCUGCUGCAUAUCUC yielded a self-cleavage of 0.4. Variant AAACAGGGGGCCACAGCAGAAGCGUUCACGUCGCAGCCCCUGUCAGAUUCUGGUGAAUCCGCGAAUUCUGCUGUAUAUCAC has a self-cleavage of 0.59. Variant CACCAGGGGGCCACAGCAGGAGCGUUCACGUCGCAGCCCCUGUCAGAUUCUGGUGAAUCCGCGAAUUCUGCUGUAUAUCAC has a self-cleavage of 0.15. With CUACAGGGGGCCACAGCGGAAGCGUUCACGUCGCAGCCCCUGUCAGAUUCUGGUGUCUCUGCGAAUUCUGCUGUAUAUCUC the self-cleavage was 0.31. CUACAGGGGGCCUCAGCAGAAGCGUUCGCGUCGCAGCCCCUGUCCGAUUCUGGUGAAUCCGCGAAUUCUGCUGUAUGUCUC showed a self-cleavage of 0.04. Variant CUACAGGGGGCCUCAGCAGGAGCGUUCACGUCGCAGCCCUUGUCAGAUUCUGGUGAAUCUGCGAAUUAUGCUGUAUAUCUC has a self-cleavage of 0.2. Variant CUACAGGGGGCCACAGCAGGAGCGUUCACCUCGCAUCCCCUGUCAGAUUCUGGUGAAUCUGCGAAUUCUGCUGUAUAUCUC has a self-cleavage of 0.05. With AAACAGGGGGCCACAGCAGAAGCGUUCACGACGCAGCCCCUGACAGAAUCUAGUGAAUCUGCGAAUUCUGCUGUAUAUCUC the self-cleavage was 0.33. With AAACAGGGGGCCACAGCAGAAGCGUUCACGACGCAGCCCCUGUCAGAUUCUGAUGAAUCAGCGAAUUCUGCUGUAUAUCUC the self-cleavage was 0.17.
